In all, about 150,000 compounds went through this assay and about 540 (0.36%) showed an effect of 50% or more. The list shows a part of the results.
What follows are molecules tested on Plasmodium falciparum (assay: Primary screen in NF54 nanoGlo assay, in single point, at 2uM, 72h; a lower Z score goes with more inhibition). Conditions: timepoint 72 hour.
Format: functional, Erythrocyte
In the case of `CO[C@H]1[C@H](NC(=O)c2c(F)ccc(C)c2F)c2ccccc2C12CCNCC2`, the “% Inhibition” value is reported as -16% and the Z score is reported as 2.78. In the case of `CCN(C(=O)c1ccc(S(=O)(=O)N2CCOCC2)cc1)c1cccc(C)c1`, the “% Inhibition” value is reported as -5% and the Z score is reported as 0.73. `c1ccn2c(CCCNc3ncnc4oncc34)nnc2c1` was tested, and the “% Inhibition” value was -2% and the Z score was 0.26. With `O=S1(=O)C[C@H](Nc2nc(C3CCCC3)nc3c2CNC3)[C@@H](O)C1` the “% Inhibition” value was -6% and the Z score was 0.96. With `O=C(Cc1cn(-c2ccccc2)nc1-c1ccc(Cl)cc1)NCc1ccco1` the “% Inhibition” value was -3% and the Z score was 0.36. With `Cc1cnc(N(C)C/C=C/c2ccccc2)nc1-c1cnn(C)c1` the “% Inhibition” value was -12% and the Z score was 1.7. In the case of `CN(C)c1noc([C@H]2CCCN(c3cc(=O)n4ccccc4n3)C2)n1`, the “% Inhibition” value is reported as -14% and the Z score is reported as 1.77. For `C=CCNC(=O)C(C)(C)Nc1ccc(C)cc1`, the “% Inhibition” value was -7% and the Z score was 1.44. In the case of `COc1ccccc1N1CCN(C(=O)[C@H]2CCCN(c3ncnc4c3nc3n4CCCCC3)C2)CC1`, the “% Inhibition” value is reported as -4% and the Z score is reported as 0.64. For `COCc1cc(CN(C)C(=O)c2n[nH]c3c2CCCC3)n[nH]1`, the “% Inhibition” value was 1% and the Z score was -0.16. With `COc1ccc(C(=O)N2CCCC[C@@H]2CCN2CCCCC2)cc1Cl` the “% Inhibition” value was 1% and the Z score was -0.08. `NC(=O)c1cnccc1N1CCC[C@H](c2nc(-c3ccccc3)c[nH]2)C1` was tested, and the “% Inhibition” value was 12% and the Z score was -1.54. With `Cc1nc(-c2cccc3ccccc23)ccc1C(=O)O` the “% Inhibition” value was -15% and the Z score was 1.72. `Fc1ccc(C2(c3nc([C@H]4CCOC4)no3)CCC2)cc1` was tested, and the “% Inhibition” value was -11% and the Z score was 1.04. For `Cc1cc(NC(=O)c2ccc(-n3cncn3)nn2)on1`, the “% Inhibition” value was -4% and the Z score was 0.86. In the case of `Cc1cc(C)cc(OCC(=O)NCCCNC(=O)COc2cc(C)cc(C)c2)c1`, the “% Inhibition” value is reported as 5% and the Z score is reported as -0.65. With `Cc1cc(CS(=O)(=O)[C@@H](C)C(=O)Nc2cc(C)on2)on1` the “% Inhibition” value was -6% and the Z score was 1.07. `C[C@H]1COc2c(N3CCN(C)CC3)c(F)cc3c(=O)c(C(=O)Nc4cccc5ncccc45)cn1c23` was tested, and the “% Inhibition” value was 3% and the Z score was -0.33. `COc1ccc(CNC(=O)c2cc3c(n2C)CCN(Cc2ccccc2)C3)cc1OC` was tested, and the “% Inhibition” value was -7% and the Z score was 1.12. In the case of `CCC[C@H](C)c1cc(NC(=O)c2cc(C)on2)[nH]n1`, the “% Inhibition” value is reported as -18% and the Z score is reported as 3.43. `CO[C@@H](C)C(=O)NCc1ccc(Cl)cn1` was tested, and the “% Inhibition” value was 1% and the Z score was -0.1. For `Cc1cnc(C(=O)N2CCOc3ncccc3C2)c(C)c1`, the “% Inhibition” value was -1% and the Z score was 0.26. `Cc1cc(C2(NC(=O)Nc3ccc4cnccc4c3)CCOCC2)on1` was tested, and the “% Inhibition” value was 4% and the Z score was -0.63. For `Cc1ccccc1[C@@H](C)CC(=O)NC1CCS(=O)(=O)CC1`, the “% Inhibition” value was -4% and the Z score was 0.7. For `CCc1noc([C@H](C)NC(=O)c2nn(C)cc2Cl)n1`, the “% Inhibition” value was -3% and the Z score was 0.52. For `CNC(=O)[C@H](NC(=O)Nc1cc(C)nn1C)c1ccc(F)c(F)c1`, the “% Inhibition” value was 17% and the Z score was -2.21. `Cc1nnc(-c2cccc(NC(=O)NCCN3CCNC3=O)c2)s1` was tested, and the “% Inhibition” value was -18% and the Z score was 1.74. With `C[C@H](NC(=O)c1sccc1S(=O)(=O)N1CCCC1)c1ccccc1` the “% Inhibition” value was 6% and the Z score was -0.69. In the case of `COc1cccc(C(=O)N[C@]2(C(F)(F)F)C(=O)N(C3CCCCC3)C(C)=C2C(C)=O)c1`, the “% Inhibition” value is reported as -10% and the Z score is reported as 1.19. `CN(CCn1cccn1)C(=O)c1ccc2c(c1O)CCCC2` was tested, and the “% Inhibition” value was -10% and the Z score was 1.92. For `O=C(NCc1ccccc1Br)c1cnn2c3c(cnc12)CCCCC3`, the “% Inhibition” value was -8% and the Z score was 1.17. With `CC(C)C[C@H](N)C(=O)N1CC2CCCCC2C1` (stereo not given in full) the “% Inhibition” value was 41% and the Z score was -5.55. `CC1(C)CN(C(=O)NCCC2CS(=O)(=O)C2)CCc2ccccc21` was tested, and the “% Inhibition” value was -4% and the Z score was 0.57. With `Cc1noc(C)c1CN(C)C(=O)Nc1cccc2nn(C)nc12` the “% Inhibition” value was 9% and the Z score was -1.52. In the case of `Cc1noc(C)c1CN1CC[C@H](NC(=O)c2n[nH]c3ccccc23)[C@@H](O)C1`, the “% Inhibition” value is reported as -1% and the Z score is reported as 0.28. For `CN(C)c1nc(N2CCN(c3ccc(F)cc3)CC2)nc2c1CN(S(=O)(=O)c1ccccc1)CC2`, the “% Inhibition” value was 12% and the Z score was -1.13. For `COC(C)(C)C(=O)Nc1cc(CO)c(C)cc1C`, the “% Inhibition” value was -3% and the Z score was 0.44. In the case of `Cn1cc2c(n1)CCC[C@H]2C(=O)Nc1nccc2ccncc12`, the “% Inhibition” value is reported as 0% and the Z score is reported as 0. For `CCc1ccccc1CNC(=O)Nc1ccn(CCOC)n1`, the “% Inhibition” value was -7% and the Z score was 0.68. In the case of `O=C(C1CC=CC1)N1CCC2CCCCC21` (stereo not given), the “% Inhibition” value is reported as -2% and the Z score is reported as 0.17. In the case of `COc1cccc(C)c1C(=O)N(CCc1ccc(F)cc1)Cc1cccnc1`, the “% Inhibition” value is reported as -10% and the Z score is reported as 1.86. `CC1(C(=O)Nc2nc3n(n2)CCCC3)CCOCC1` was tested, and the “% Inhibition” value was 6% and the Z score was -0.81. In the case of `CCCN1CCN(C(=O)CN2C(=O)C(C)(C)c3cc(C)ccc32)CC1`, the “% Inhibition” value is reported as -6% and the Z score is reported as 1.01. With `COCc1cn(C2CCN(C(=O)C3CCCCCC3)CC2)nn1` the “% Inhibition” value was -7% and the Z score was 1.07. In the case of `O=C(NCc1ccc(Cl)cc1)c1ccc(-c2cccnc2)cc1`, the “% Inhibition” value is reported as -3% and the Z score is reported as 0.45. `Cn1nc2n(c1=O)C[C@@H](C(=O)NCc1ccccc1Cl)CC2` was tested, and the “% Inhibition” value was -2% and the Z score was 0.38. `O=C(NCCn1cc(-c2nc(-c3cccnc3)no2)nn1)c1cccc(Cl)c1` was tested, and the “% Inhibition” value was -8% and the Z score was 1.59. `CC(C)c1nnsc1C(=O)N1CCc2nocc2C1` was tested, and the “% Inhibition” value was 8% and the Z score was -1.63. In the case of `O=C(c1cc(CO)ccn1)N(Cc1nccs1)C1CC1`, the “% Inhibition” value is reported as -19% and the Z score is reported as 2.98. With `CCc1ncc(C(=O)N(C)C[C@H]2CCCCO2)cn1` the “% Inhibition” value was 0% and the Z score was 0.03. In the case of `CN1C(=O)N(C)[C@H]2C[C@@H]1N(C)C(=O)N2C`, the “% Inhibition” value is reported as 4% and the Z score is reported as -0.62. In the case of `CS(=O)(=O)N1CC(C(=O)NC2CCCC2)C1`, the “% Inhibition” value is reported as -12% and the Z score is reported as 1.81. In the case of `O=C(O)CCc1cc2n(n1)CCCN(Cc1ccc(Cl)s1)C2`, the “% Inhibition” value is reported as 11% and the Z score is reported as -1.28. With `Cc1ccc(O)cc1C(=O)N[C@@H]1C[C@H]2OCC[C@@H]12` the “% Inhibition” value was -7% and the Z score was 1.16. For `COCC1(CNC(=O)N[C@H]2CC[C@@H](C(=O)N3CCCC3)C2)CCC1`, the “% Inhibition” value was -5% and the Z score was 0.98. `Clc1ccc2nc3c(c(-c4ccccc4Cl)c2c1)-c1ccccc1CC3` was tested, and the “% Inhibition” value was -3% and the Z score was 0.57. `CC(C)(C)c1ccc(S(=O)(=O)N2C3C=CCC2CC3)cc1` (stereo not given) was tested, and the “% Inhibition” value was -1% and the Z score was 0.17. With `Cn1ccc(CS(=O)(=O)CC(=O)NCC2CCCCC2)cc1=O` the “% Inhibition” value was 1% and the Z score was -0.15. With `CCn1cc(S(=O)(=O)NCCOc2cncc(Cl)c2)cn1` the “% Inhibition” value was 6% and the Z score was -0.73. `CC(C)c1nn(C)cc1-c1noc(C(F)(F)C2CCNCC2)n1` was tested, and the “% Inhibition” value was 4% and the Z score was -0.69. With `Cc1cccc(C[C@@H](CNC(=O)Cc2ccc(C)nc2)C(=O)O)c1` the “% Inhibition” value was 5% and the Z score was -0.88. With `O=C(NCCc1cccc(-c2ccccc2)c1)[C@@H]1COCCO1` the “% Inhibition” value was -17% and the Z score was 1.73. `O=C1CCN(Cc2cccc(OCCCCN3CCOCC3)c2)CCN1` was tested, and the “% Inhibition” value was -2% and the Z score was 0.33. In the case of `O=C(NC[C@H](c1ccc(F)cc1)c1c[nH]c2ccccc12)NC1CCCCC1`, the “% Inhibition” value is reported as -7% and the Z score is reported as 1.34. In the case of `Cc1c(C)c2ccc(NC(=O)c3cc4ccccc4o3)cc2[nH]c1=O`, the “% Inhibition” value is reported as 93% and the Z score is reported as -7.22. With `C[C@H]1CCN(c2cc(C(=O)Nc3ccc(Br)cn3)ccn2)C1` the “% Inhibition” value was -5% and the Z score was 0.73. In the case of `COC(=O)c1cn(-c2cccc(C(=O)NCc3cccnc3)c2)cc2c(O)nnc1-2`, the “% Inhibition” value is reported as -13% and the Z score is reported as 1.67. `O=C(NCc1nnc2ccc(N3CCCC3)nn12)c1ccc[nH]c1=O` was tested, and the “% Inhibition” value was 16% and the Z score was -2.09. With `CN1CCC[C@H](Cn2ccc(-c3cccc(-c4nccs4)c3)n2)C1` the “% Inhibition” value was -5% and the Z score was 0.86. In the case of `CO[C@H]1CCN(C(=O)NCC2(c3ccccn3)CCC2)CC1(C)C`, the “% Inhibition” value is reported as -12% and the Z score is reported as 1.65. `O=C1CC[C@@H](C(=O)NCc2ccc(OCc3ccccc3F)cc2)N1` was tested, and the “% Inhibition” value was -13% and the Z score was 1.17. With `C#CC(C)(C)N(C)S(=O)(=O)c1c(C)noc1C` the “% Inhibition” value was -3% and the Z score was 0.4. In the case of `COc1ccc(-c2cc3n(C)c(C)c(CCC(=O)NC4CCCCC4)c(=O)n3n2)cc1`, the “% Inhibition” value is reported as 4% and the Z score is reported as -0.47. In the case of `CC(C)NC(=O)Nc1cc(OCc2ccccc2)ncn1`, the “% Inhibition” value is reported as -2% and the Z score is reported as 0.37. With `O=S1(=O)CCC(O)(CNc2cc(C3CC3)nc(C3CC3)n2)CC1` the “% Inhibition” value was 0% and the Z score was 0.09. In the case of `Cc1cc(O)n2nc(CC(=O)NCc3cc(C4CC4)on3)nc2n1`, the “% Inhibition” value is reported as -13% and the Z score is reported as 1.67. In the case of `COC[C@@H]1[C@H](C(=O)NCc2cc(F)cc(F)c2)CCCN1C`, the “% Inhibition” value is reported as 7% and the Z score is reported as -1.3. `Nc1ncnc(NC2CCCCC2n2cccn2)c1Cl` (stereo not given) was tested, and the “% Inhibition” value was -10% and the Z score was 1.22. For `O=C(Nc1cnc2ccnn2c1)C1CCCC1`, the “% Inhibition” value was 12% and the Z score was -1.62. With `C[C@H]1CCc2c(sc(NC(=O)CCC(=O)O)c2C(=O)N2CCOCC2)C1` the “% Inhibition” value was -17% and the Z score was 2.41. With `COCC(=O)N[C@@H]1CN(C(=O)NCc2ccc(F)cc2)CC[C@@H]1c1nc(C)no1` the “% Inhibition” value was 2% and the Z score was -0.27. With `CN[C@@H](C)c1nc(C2CCOCC2)nn1CC1CCCCC1` the “% Inhibition” value was -16% and the Z score was 1.79. For `Cc1ccc(NC(=O)c2csc(CN(Cc3ccc(F)cc3)Cc3ccc(Cl)cc3)n2)cc1`, the “% Inhibition” value was -15% and the Z score was 1.51. In the case of `CNC(=O)[C@@H]1C[C@@H](NC(C)C)CN1Cc1ccccc1Cl`, the “% Inhibition” value is reported as -2% and the Z score is reported as 0.29. For `COCCN(C(=O)Nc1cccc(NC(=O)C(C)C)c1)[C@H]1CCS(=O)(=O)C1`, the “% Inhibition” value was -7% and the Z score was 0.72.
